Broadly, the EC50 is the concentration that produces a half-maximal response. What is called Kd is the concentration at which binding is half-saturated. High values mean a looser complex, low ones a tighter complex. As a reminder, the koff is a measure of how fast the partners let go of each other. The low end stands for slow dissociation, the high end for fast dissociation. One may read the kon as the second-order rate constant of association. A low value points to slower complex formation.

Test [1] deals with T1, human PD-L1 protein (purchased from AcroBiosystems) (human, UniProt Q9NZQ7 in part, biotinylated in the blocking assay).
T1 construct: Bought soluble protein; also called PD-L1 antigen; biotinylated human PD-L1 protein
Put plainly: flow cytometry blocking assay: antibody pre-incubated with biotinylated human PD-L1 protein (1 ug/ml), binding of PD-L1 to CHO-hPD-1 cells read as MFI; falling curve, the table under the plot calls the half-maximal concentration EC50; unit from the concentration axis. The procedure: (§1) The expanded CHO-hPD-1 cells were adjusted to a cell density of 2 ×10^6 cells/ml, and were added to 96-well flow plate at 100 μl/well, and centrifuged for later use. The purified mutant sample was diluted with PBS and diluted 3 times from […] for 12 points.
(§2) 28 purified sample at 4° C. for 30 min. The co-incubation sample was added to the above-mentioned 96-well flow plate with cells at 100 μl/well, incubated at 4° C. for 30 min, and washed twice with PBS. APC goat anti-mouse IgG (minimum×reactivity) antibody diluted 100 times with PBS (purchased from Biolegend®) was added at 100 μl/well, incubated at 4° C. for 30 min, and washed twice with PBS. PBS was added at 100 μl/well to resuspend cells, and detection was performed on a CytoFlex (Bechman) flow cytometer and the corresponding MFI was calculated.
(In general: A flow cytometer gives signals particle by particle.)

The target in test [2] is T2, human PD-L2 on CHO cells (CHO-hPD-L2 cells) (human, UniProt Q9BQ51 20-273).
T2 construct: whole, on cells; also called CHO-K1-PD-L1/PD-L2
T2 sequence (looked up): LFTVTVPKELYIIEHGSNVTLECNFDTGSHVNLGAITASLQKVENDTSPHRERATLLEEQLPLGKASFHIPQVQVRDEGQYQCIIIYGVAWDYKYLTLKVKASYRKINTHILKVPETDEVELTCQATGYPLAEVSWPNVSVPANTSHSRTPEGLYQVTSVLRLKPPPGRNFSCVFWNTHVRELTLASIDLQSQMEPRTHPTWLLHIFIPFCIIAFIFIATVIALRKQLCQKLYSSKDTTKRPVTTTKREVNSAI
The experiment in a line: flow cytometry on CHO-hPD-L2 cells, PE anti-human IgG-Fc, MFI; table under the plot, unit from the concentration axis.

Test [3] has as its target T3, human PD-L2 protein (purchased from AcroBiosystems) (human, UniProt Q9BQ51 20-219, limits assumed, biotinylated in the blocking assays).
T3 construct: Bought soluble protein; also called PD-L2 antigen; biotinylated human PD-L2 protein
T3 sequence (looked up): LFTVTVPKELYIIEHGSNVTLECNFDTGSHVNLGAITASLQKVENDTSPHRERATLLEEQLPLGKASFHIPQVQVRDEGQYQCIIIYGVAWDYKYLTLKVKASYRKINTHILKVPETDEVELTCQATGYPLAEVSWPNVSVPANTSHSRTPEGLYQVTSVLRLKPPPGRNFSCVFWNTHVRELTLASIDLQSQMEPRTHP
The experiment in a line: flow cytometry blocking assay: antibody pre-incubated with biotinylated human PD-L2 protein (1 ug/ml), binding of PD-L2 to CHO-hPD-1 cells read as MFI (APC); falling curve, the table under the plot calls the half-maximal concentration EC50; unit from the concentration axis. The protocol: as §1, §2

For test [4], the target named is T1, human PD-L1 protein (purchased from …). Put plainly: BLI (ForteBio), antibody on AHQ sensor, 100 nM PD-L1 antigen, 1:1 model. The procedure:
(§3) ForteBio affinity determination was carried out according to existing methods (Estep, P et al., High throughput solution-based measurement of antibody-antigen affinity and epitope binning. MAbs, 2013.5(2): p. 270-8). In short, the sensor was equilibrated for 30 min under the line of the analysis buffer, and then the baseline was established after online detection for 60 s. The purified antibody obtained as described above was loaded onto the AhQ sensor online. […] Kinetic analysis was performed using a 1:1 binding model.

The target in test [5] is T3, human PD-L2 protein (purchased from …). The experiment in a line: BLI (ForteBio), antibody on AHQ sensor, 100 nM PD-L2 antigen, 1:1 model. The procedure: as §3
(In general: BLI is a label-free optical method that tracks binding on a fibre tip over time.)

The target in test [6] is T4, human PD-L1 on CHO cells (CHO-hPD-L1 cells) (human, UniProt Q9NZQ7).
T4 construct: whole, on cells; also called CHO-K1-PD-L1/PD-L2
Put plainly: flow cytometry on CHO-hPD-L1 cells, PE anti-human IgG-Fc, MFI; table under the plot, unit from the concentration axis.

B1: Bi-201 (bispecific antibody)
chain: QVQLVESGGGLVKPGGSLRLSCAASGHTFIIYAIGWFRQAPGKGLEFVATINWSGSMTNYADSVKGRFTISRDNAKNTVYLQMNSLKPDDTAVYYCAAYVGATISTAHSRYDYWGQGTLVTVSS[human IgG1 Fc with changes left out here]GGGGSGGGGSGGGGSGGGGSGEVQLVESGGGLVQPGGSLRLSCAASGRTFSSMTIGWFRQAPGKGLEFVSGIGWTSGLTVYADSVKGRFTISRDNAKNSMYLQMNSLRAEDTAVYYCAADSMNRGQFDYWGQGTLVTVSS
notes: Formula I format
Consider B1, for which the EC50 worked out at 22.9 nM in test [1], 2.89 nM in test [2], 32.2 nM in test [3] and 4.78 nM in test [6]. The Kd in test [4] turned out to be 0.481 nM; in test [5], 0.445 nM. Further, the koff in test [4] was found to be 0.000161 s⁻¹; in test [5], 0.000234 s⁻¹. The kon was 334000 M⁻¹ s⁻¹ in test [4] and 525000 M⁻¹ s⁻¹ in test [5].

B2: Bi-202 (bispecific antibody)
chain: QVQLVESGGGLVKPGGSLRLSCAASGHTFIIYAIGWFRQAPGKGLEFVATINWSGSMTNYADSVKGRFTISRDNAKNTVYLQMNSLKPDDTAVYYCAAYVGATISTAHSRYDYWGQGTLVTVSSGGGGGSGGGGSGGGGSGGGGSGEVQLVESGGGLVQPGGSLRLSCAASGRTFSSMTIGWFRQAPGKGLEFVSGIGWTSGLTVYADSVKGRFTISRDNAKNSMYLQMNSLRAEDTAVYYCAADSMNRGQFDYWGQGTLVTVSS[human IgG1 Fc with changes left out here]
notes: Formula II format
As to B2, the EC50 in test [1] came to 11.5 nM; in test [2], 1.56 nM; in test [3], 20.8 nM; in test [6] it was 3.81 nM. Further, the Kd in test [4] stood at 1.66 nM; in test [5], 1.2 nM. Moreover, the figures for the koff in test [4] and in test [5] were 0.000343 s⁻¹ and 0.000395 s⁻¹, respectively. For the same molecule, the figures for the kon in test [4] and in test [5] were 207000 M⁻¹ s⁻¹ and 329000 M⁻¹ s⁻¹, respectively.

The values above are taken from US12600782 (BIOTHEUS, dated 2026).
